Measured values published in PubChem BioAssay (NCATS).
Values joined by “and” are separate entries in the source; they are usually repeats but may differ in a detail not shown here. Identical values can stand only once. The list shows a part of the results. The main result of the screen is listed elsewhere. These columns were measured beside it and carry no call. The list favours compounds with an active or inconclusive main result. Potencies come from curve fits of mixed quality, noted in brackets.

Test: qHTS Assay for Lipid Storage Modulators (AID 1519)
Conditions: Drosophila S3 cells, BODIPY lipid droplet/cell ratio, laser cytometry, cells loaded with oleic acid
In short: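 Cells seeded at 5,000 per well were treated with compounds over a concentration series and loaded with oleic acid (400 uM, as added). Lipid droplet fluorescence (488 nm excitation, 500-530 nm channel) was read by laser-scanning cytometry and normalized to 20 uM Triacsin C.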

[1] = measured here: cell count channel max response
[2] = measured here: cell number channel AC50
[3] = measured here: lipid (BODIPY) channel AC50
[4] = measured here: lipid channel max response
Tags give direction and shape of the fitted curve.

SMILES | max response [1] | AC50 [2] | AC50 [3] | max response [4]
COC(=O)[C@@H]1[C@@H]2C[C@H]3c4[nH]c5ccccc5c4CCN3C[C@@H]2CC[C@@H]1O | 66.5% and 25% | 35.5 µM [rising, partial curve, poor fit] and 8.91 µM [rising, full curve, poor fit] | 12.6 µM [rising, full curve, poor fit] | 82.7% and 33.8%
O=C1NC(c2cccc([N+](=O)[O-])c2)=CCN1c1ccccc1O | 96.4% and 12.3% | 15.8 µM [rising, partial curve, poor fit] and 22.4 µM [falling, single point] | 15.8 µM [rising, partial curve, poor fit] and 22.4 µM [falling, single point] | 121% and 15.7%
COc1cccc(-c2cc(NCc3cnc(C)cn3)ncn2)c1 | 32.3% | 3.55 µM [rising, partial curve, poor fit] | 3.55 µM [rising, partial curve] | 34.6%
CC(=O)C1=C(O)C=C2Oc3c(C(C)=O)c(O)c(C)c(O)c3[C@]2(C)C1=O | 80.6% | 35.5 µM [rising, partial curve, poor fit] | 35.5 µM [rising, partial curve, poor fit] | 103%
COc1ccc(CNc2nc(-c3c(C)noc3C)nc3ccccc23)c(OC)c1 | 4.79% | 3.55 µM [rising, partial curve, poor fit] | 2.82 µM [rising, partial curve, poor fit] | 9.79%
CC(=O)NCCNc1nc(-c2cccc(NS(C)(=O)=O)c2)nc2ccccc12 | 39.7% | 0.178 µM [rising, full curve, poor fit] | 1.58 µM [rising, full curve, poor fit] | 50.2%
COc1cccc(Cn2c(=O)cnc3cnc(OC)nc32)c1 | 39.8% | 31.6 µM [rising, single point] | 17.8 µM [rising, single point] | 38.3%
Cc1cnc(CNc2ccnc(-c3ccccc3C)n2)cn1 | 43.4% | 17.8 µM [rising, single point] | 15.8 µM [rising, partial curve] | 51.5%
O=c1c(-c2cc(F)cc(F)c2)nc2cnc(N3CCNCC3)nc2n1CCc1ccccc1 | 17.6% | 3.55 µM [rising, partial curve, poor fit] | 3.16 µM [rising, partial curve, poor fit] | 19.3%
Cc1nc2cncnc2n(-c2ccccc2)c1=O | 31.3% | 4.47 µM [rising, full curve, poor fit] | 7.08 µM [rising, partial curve, poor fit] | 41.8%
CN=C1N[C@H](c2ccccc2)N(c2ccccc2)S1 | -16% | 6.31 µM [rising, full curve, poor fit] | 7.08 µM [rising, partial curve, poor fit] | -86.1%
O=S(=O)(c1ccccc1)N1CCC2(CCCN(Cc3nccs3)C2)CC1 | 31.7% | 0.316 µM [rising, full curve, poor fit] | 0.355 µM [rising, full curve] | 34.7%
COc1ccc2[nH]cc(CCNc3cc(-c4ccccc4OC)ncn3)c2c1 | 9.97% | 0.398 µM [rising, full curve] | 0.355 µM [rising, full curve] | 9.44%
CN(CC[C@@H](Oc1ccc(-c2ccccc2)cc1)c1ccc(F)cc1)CC(=O)O | 72.4% | 35.5 µM [rising, single point] | 35.5 µM [rising, partial curve, poor fit] | 98.4%
CC1(C)C(=O)NC2=C1C(=O)C(=O)c1ccccc12 | 56.9% | 28.2 µM [rising, partial curve, poor fit] | 28.2 µM [rising, partial curve, poor fit] | 53.1%
O=c1c(-c2cccc(Cl)c2)nc2cncnc2n1Cc1ccccc1 | 12.4% | 0.355 µM [rising, full curve] | 0.398 µM [rising, full curve] | 15.5%
COc1ccccc1-c1nc(N2CCOCC2)c2ccccc2n1 | 36.5% | 1 µM [rising, full curve, poor fit] | 1.12 µM [rising, full curve] | 39.6%
